The source of these data is the supplement of paper PMC8007513.

The test system of the assay is Trichoderma virens ATCC 9645. The assay is described as follows: growth yield (OD600) with compound + IPBC relative to untreated control; higher = less growth inhibition. The conditions noted are these: compound concentration: 100 uM, IPBC concentration: 200 ng/ml. The essentials: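 Library compounds (100 μM final), with or without a co-applied biocide (200 ng ml^−1), were added to 100 μl aliquots of Trichoderma virens ATCC 9645 spores at 15,000 spores ml^−1 in potato dextrose broth. Cultures were grown at 30 °C in 96-well plates, and OD600 was measured at 40 h and 72 h. Each growth value is a mean of duplicate screens, expressed relative to the control with neither agent.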

Structures can show the parent of a compound that is named as a salt. ± gives the standard error. The campaign covered roughly 1,300 compounds. About 130 (10%) showed an effect of 50% or more. This is a selection; strong and weak results do not stand in their true shares.

In the case of `CC(C[N+](C)(C)C)OC(N)=O` (stereo not drawn) [Bethanechol chloride] + CCCCNC(=O)OCC#CI [3-iodo-2-propynyl butylcarbamate (IPBC)], the growth yield runs as follows: (40 h) 87 ± 3.2%; (72 h) 90.2 ± 1.5%.
Take `Cc1cc(C(C#N)c2ccc(Cl)cc2)c(Cl)cc1NC(=O)c1cc(I)cc(I)c1O` (stereo not drawn) [Closantel] + CCCCNC(=O)OCC#CI [3-iodo-2-propynyl butylcarbamate (IPBC)]: the growth yield reads like this: (40 h) 102 ± 2.7%; (72 h) 101 ± 0.94%.
For the compound `NCCc1cc[nH]n1` [Betazole hydrochloride] + CCCCNC(=O)OCC#CI [3-iodo-2-propynyl butylcarbamate (IPBC)], the growth yield is, setting by setting: (40 h) 88.5 ± 1.8%; (72 h) 91.03 ± 0.42%.
Regarding `CCCNC(C)C(=O)Nc1c(C)csc1C(=O)OC` (stereo not drawn) [Articaine hydrochloride] + CCCCNC(=O)OCC#CI [3-iodo-2-propynyl butylcarbamate (IPBC)], the growth yield worked out at 100 ± 14% (40 h) and 99.1 ± 7.9% (72 h).
On the same counts, the results for `COc1cccc(N(C)C(=S)Oc2ccc3c(c2)CCCC3)n1` [Liranaftate] + CCCCNC(=O)OCC#CI [3-iodo-2-propynyl butylcarbamate (IPBC)] are 0% and 0%.
As to `C[C@@H]1C[C@@H]([C@H](O)CC2CC(=O)NC(=O)C2)C(=O)[C@@H](C)C1` [Cycloheximide] + CCCCNC(=O)OCC#CI [3-iodo-2-propynyl butylcarbamate (IPBC)], under “40 h”, the growth yield is 34.3 ± 2.9%.
For the compound `CC(C)Cn1cnc2c(N)nc3ccccc3c21` [Imiquimod] + CCCCNC(=O)OCC#CI [3-iodo-2-propynyl butylcarbamate (IPBC)], the growth yield by setting is: (40 h) 82.6%; (72 h) 99.2 ± 14%.
For `NC(=O)N1c2ccccc2CC(=O)c2ccccc21` [Oxcarbazepine] + CCCCNC(=O)OCC#CI [3-iodo-2-propynyl butylcarbamate (IPBC)], the growth yield was found to be 83.4 ± 2.4% (40 h) and 92.9 ± 1.9% (72 h).
As to `CC1(C)O[C@@H]2[C@@H](CO[C@@]3(COS(N)(=O)=O)OC(C)(C)O[C@@H]23)O1` [Topiramate] + CCCCNC(=O)OCC#CI [3-iodo-2-propynyl butylcarbamate (IPBC)], the growth yield runs as follows: (40 h) 89 ± 5.1%; (72 h) 93.1 ± 5.9%.
Regarding `CC[N+](CC)(CC(=O)Nc1c(C)cccc1C)Cc1ccccc1` [Denatonium benzoate] + CCCCNC(=O)OCC#CI [3-iodo-2-propynyl butylcarbamate (IPBC)], the growth yield (40 h) was 101.7 ± 0.64% and the growth yield (72 h) was 106 ± 1.4%.
In the case of `COc1cc(NS(=O)(=O)c2ccc(N)cc2)nc(OC)n1` [Sulfadimethoxine] + CCCCNC(=O)OCC#CI [3-iodo-2-propynyl butylcarbamate (IPBC)], the growth yield is, setting by setting: (40 h) 116.3 ± 0.95%; (72 h) 114 ± 1.6%.
Regarding `O=c1[nH]oc2c1CCNC2` [THIP Hydrochloride] + CCCCNC(=O)OCC#CI [3-iodo-2-propynyl butylcarbamate (IPBC)], the growth yield (40 h) was 98.6 ± 7.5% and the growth yield (72 h) was found to be 96.9 ± 3.4%.
